Assay results as given in the supplement of paper PMC10126150.
Values marked as one replicate rest on one cluster of the flow cell; about a third of the high ones do not repeat.

Test system: ATP
Test: switch fluorescence ratio, 500 uM ATP over buffer (Cy3 cluster intensity, sum of 5 cycles each) (fold (ratio)); higher = stronger signal-on switching upon ATP binding; sequences stand for … in TCGTCGGCAGCGTCAGATGTGTATAAGAGACAGTTTTTTTTTTTTTTTTTTTTTTTTT…TC
Settings: aptamer strand: ATP DNA aptamer (quencher-CACCTGGGGGAGTATTGCGGAGGAAGG + anchor), 100 nM annealed; ATP concentration: 500 uM; one replicate
Outline: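 Imaging in selection buffer was followed by imaging after 15 min with 500 uM ATP at 22 °C, for Cy3-labelled switching-strand clusters annealed to 100 nM quencher-labelled ATP aptamer on a modified Illumina MiSeq flow-cell. Five of these buffer/ATP cycles ran, separated by NaOH stripping and re-annealing. The fluorescence ratio per cluster is summed target-cycle over summed buffer-cycle Cy3 intensity, averaged per switch-domain sequence; clusters outside 100-1000 RFU were removed.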
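Also: ATP exposure 15 min at 22 °C before imaging.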

| Sequence | switch fluorescence ratio |
| --- | --- |
| GGGTTTCGTA | 1.01 |
| GGTAAAAAG | 0.955 |
| GGTAAGAAGG | 0.986 |
| GGTAAGGGGC | 1.02 |
| GGTAAGTAAA | 1.3 |
| GGTAATGGGC | 0.999 |
| GGTAATGGTT | 0.982 |
| GGTACACTCA | 1.03 |
| GGTACCAGGA | 1.05 |
| GGTACGCGGA | 1.11 |
| GGTACTAGTA | 0.957 |
| GGTACTTGCT | 0.968 |
| GGTACTTGGT | 1.03 |
| GGTAGAGTAT | 1.03 |
| GGTAGATTTA | 0.978 |
| GGTAGCGCAA | 1.93 |
| GGTAGCTCGA | 1.03 |
| GGTAGGACGG | 1.05 |
| GGTAGGAGGC | 0.968 |
| GGTAGGATTA | 1.03 |
| GGTAGGGGCA | 1 |
| GGTAGTACGT | 0.983 |
| GGTAGTATTG | 0.938 |
| GGTAGTCGTT | 0.98 |
| GGTAGTGGTT | 0.981 |
| GGTAGTTCAG | 0.981 |

| Sequence | switch fluorescence ratio |
| --- | --- |
| GGTATAAGG | 0.97 |
| GGTATACCAA | 1.04 |
| GGTATAGTCT | 1.02 |
| GGTATCGATT | 0.987 |
| GGTATCGTCC | 1 |
| GGTATCTAGG | 0.979 |
| GGTATCTGGG | 1.02 |
| GGTATCTGTG | 0.982 |
| GGTATGATGT | 0.985 |
| GGTATGTTAC | 1.04 |
| GGTATTAGAG | 0.971 |
| GGTATTAGG | 0.977 |
| GGTATTGAAA | 0.987 |
| GGTATTTGT | 0.971 |
| GGTCAAAGCT | 0.957 |
| GGTCAAATTT | 0.983 |
| GGTCAAGATC | 1.01 |
| GGTCAATCTT | 0.962 |
| GGTCACAAAG | 0.969 |
| GGTCACGAGG | 1 |
| GGTCAGATTC | 0.973 |
| GGTCATCTC | 1 |
| GGTCATTCTG | 0.993 |
| GGTCCAGGGG | 1.84 |
| GGTCCATTT | 1.01 |
| GGTCCCAGCT | 0.984 |

| Sequence | switch fluorescence ratio |
| --- | --- |
| GGTCCCATCC | 1.06 |
| GGTCCGGTGT | 1.06 |
| GGTCCTGCCG | 1.05 |
| GGTCCTTGCG | 1.01 |
| GGTCGACGT | 1.05 |
| GGTCGCAGG | 0.979 |
| GGTCGCTAAA | 0.929 |
| GGTCGCTCGA | 0.969 |
| GGTCGGAGCC | 0.978 |
| GGTCGGCACG | 0.992 |
| GGTCGGGTAA | 0.942 |
| GGTCTAAGTC | 1.05 |
| GGTCTACAAA | 1.03 |
| GGTCTCATAT | 0.994 |
| GGTCTCATGC | 1.02 |
| GGTCTCGCTC | 0.972 |
| GGTCTGCGTA | 1.07 |
| GGTCTGGCGT | 0.973 |
| GGTCTGTTAA | 0.991 |
| GGTCTTGCCG | 0.964 |
| GGTGAACA | 0.965 |
| GGTGAATAGC | 1.02 |
| GGTGACAGCC | 0.982 |
| GGTGACCGGG | 0.938 |
| GGTGACGCGC | 1.1 |
| GGTGAGCGAC | 0.962 |

| Sequence | switch fluorescence ratio |
| --- | --- |
| GGTGAGGCGA | 1.07 |
| GGTGAGTGTT | 0.938 |
| GGTGATAGCC | 0.964 |
| GGTGATGTT | 0.976 |
| GGTGATTGGC | 1.08 |
| GGTGATTGGG | 0.958 |
| GGTGCAATTT | 1.1 |
| GGTGCCAGGG | 1.04 |
| GGTGCGAGGC | 1.05 |
| GGTGCTAGTC | 1.01 |
| GGTGGAAAAA | 1.01 |
| GGTGGAAATA | 0.97 |
| GGTGGAAGT | 1.01 |
| GGTGGAGGCG | 1.05 |
| GGTGGATCTA | 1.03 |
| GGTGGATGTT | 1.5 |
| GGTGGCGGG | 1.02 |
| GGTGGGACTC | 1.03 |
| GGTGGGAGTA | 1.01 |
| GGTGGGCTAC | 1.02 |
| GGTGGGGCCG | 0.956 |
| GGTGGTATCC | 1.04 |
| GGTGGTCTTA | 1.05 |
| GGTGGTGCGG | 1.01 |
| GGTGGTTAG | 0.98 |
| GGTGGTTCA | 1.01 |

| Sequence | switch fluorescence ratio |
| --- | --- |
| GGTGTAAATG | 1.02 |
| GGTGTAGGGC | 1.08 |
| GGTGTATTGT | 1.01 |
| GGTGTCTCCA | 1.05 |
| GGTGTCTGGC | 0.977 |
| GGTGTCTTGC | 0.978 |
| GGTGTGAGCC | 1.05 |
| GGTGTGAGGG | 0.94 |
| GGTGTGGAGT | 1.23 |
| GGTGTGTGCC | 0.998 |
| GGTGTGTTAT | 0.988 |
| GGTGTGTTTA | 0.957 |
| GGTGTTGCTT | 0.987 |
| GGTGTTGTAG | 0.992 |
| GGTTAAGCGC | 1.04 |
| GGTTAATTTA | 1.01 |
| GGTTACTAGT | 0.974 |
| GGTTAGGGCA | 0.98 |
| GGTTAGGTTG | 0.97 |
| GGTTATCACT | 0.943 |
| GGTTCACAAT | 1.02 |
| GGTTCACGTG | 1 |
| GGTTCAGTCT | 1.03 |
| GGTTCATATA | 1.02 |
| GGTTCCTCAA | 1.05 |
| GGTTCGCGGA | 1.14 |

| Sequence | switch fluorescence ratio |
| --- | --- |
| GGTTCGGAGG | 0.968 |
| GGTTCGTTTC | 1.02 |
| GGTTCTATTC | 1.01 |
| GGTTCTGCGG | 0.986 |
| GGTTGAGAGG | 1.01 |
| GGTTGATCGA | 1.02 |
| GGTTGCCGCG | 0.981 |
| GGTTGCCTTA | 0.828 |
| GGTTGGACGA | 0.926 |
| GGTTGGATAA | 1 |
| GGTTGGGCAC | 1.01 |
| GGTTGGGCAG | 0.963 |
| GGTTGTAGAA | 0.963 |
| GGTTGTAGGT | 1.06 |
| GGTTGTATTC | 0.958 |
| GGTTTAACAC | 1.02 |
| GGTTTACAT | 1.01 |
| GGTTTACGGG | 0.97 |
| GGTTTATTCG | 1.17 |
| GGTTTCAATG | 1.03 |
| GGTTTCCTTG | 0.976 |
| GGTTTGCATA | 0.969 |
| GGTTTGGCAT | 0.955 |
| GGTTTGTCGA | 0.989 |
| GGTTTTTACC | 0.985 |
| GGTTTTTGC | 0.998 |

| Sequence | switch fluorescence ratio |
| --- | --- |
| GTAAAAACAA | 0.997 |
| GTAAAACCAT | 1.05 |
| GTAAAAGCTA | 1.01 |
| GTAAACCCG | 1.15 |
| GTAAACTTAC | 1.18 |
| GTAAATCTTA | 1.02 |
| GTAAATTG | 0.972 |
| GTAACAGCGG | 0.981 |
| GTAACATTTT | 0.963 |
| GTAACCTTT | 1.04 |
| GTAACGCGCA | 1.07 |
| GTAAGAAAAC | 0.953 |
| GTAAGAGACT | 1.03 |
| GTAAGCAATG | 1.5 |
| GTAAGGCTGT | 0.98 |
| GTAAGTACTT | 1.03 |
| GTAAGTGCGT | 1.06 |
| GTAAGTTAAT | 1.01 |
| GTAATAGATC | 0.978 |
| GTAATATCCA | 1.01 |
| GTAATCAGAT | 1.02 |
| GTAATCGCAC | 1.17 |
| GTAATGATG | 1.02 |
| GTAATGGAGT | 1.03 |
| GTAATGTCGA | 0.978 |
| GTAATTGATG | 0.99 |

| Sequence | switch fluorescence ratio |
| --- | --- |
| GTACATTTGA | 1.01 |
| GTACCGCTGA | 1.17 |
| GTACCTTATT | 1.06 |
| GTACGCTAAG | 1.21 |
| GTACTAATCC | 0.983 |
| GTACTCGGAG | 1.01 |
| GTAGAAAAGT | 0.986 |
| GTAGATGGTG | 0.989 |
| GTAGCCAAAA | 2.45 |
| GTAGCTATTT | 1.09 |
| GTAGCTGGT | 1.04 |
| GTAGCTTGGG | 1.03 |
| GTAGGACTGG | 0.989 |
| GTAGGATGTT | 0.963 |
| GTAGGCCCGT | 0.948 |
| GTAGGCTGGT | 1.04 |
| GTAGGGCCTC | 1.01 |
| GTAGTAAACA | 1.05 |
| GTAGTATGGT | 1.03 |
